# Measured values reported in the supplement of paper PMC7826260.
# The other results are listed elsewhere or left out. The data describe in vitro nicking of single-stranded DNA by Rep domains (1 h at 37 °C, 3 µM enzyme); the outer parts of the 90-letter strands are left off. Values are log2 of uncut reads against the no-enzyme pool; strong cutting gives strongly negative numbers. There is no active / inactive call. Shares of all reads are compared; values above 0 arise when much of the pool is cut.
# Test system: T1, Rep nickase domain of wheat dwarf virus
# T1 sequence (Rep 1-137, printed without the tag): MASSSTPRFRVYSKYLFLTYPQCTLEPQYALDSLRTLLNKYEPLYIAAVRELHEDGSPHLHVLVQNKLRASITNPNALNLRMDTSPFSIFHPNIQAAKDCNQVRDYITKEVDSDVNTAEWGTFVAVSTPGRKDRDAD
# Experiment: uncleaved DNA left, log2 of reads against the no-enzyme library (log2 ratio); higher = less cleavage (more negative = more Rep cleavage of the k-mer); sequences stand for … in CTCGTCCG…ACCGGAGA
# Protocol: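 A pool of 90-nt single-stranded DNAs with seven random bases just before the constant AC of the nick site (name = the seven bases) was cut by 3 µM recombinant His6-SUMO-tagged Rep nickase domain (300 nM DNA, 50 mM HEPES pH 8.0, 50 mM NaCl, 1 mM MnCl2, 1 h, 37 °C, three replicates). Uncut DNA was amplified and sequenced.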
row,Sequence,uncleaved DNA left (log2)
1,TAGATTA,-0.0105
2,GGTAGGA,0.232
3,TACGACT,-0.109
4,CTACTCG,-0.141
5,AAGGAGG,0.192
6,AGAGGCT,0.168
7,TTTGCGA,-0.0561
8,ATGGCGC,-0.269
9,ATGCGGG,0.0254
10,CGGAGGT,0.00608
11,GCGCCCT,0.0128
12,TCTGGTC,0.218
13,ACGCCGC,-0.184
14,TAGTGTG,0.000113
15,GGGCCCT,0.0746
16,TGTAGCA,-0.00966
17,GTTAGGA,0.269
18,TTACCCG,-0.101
19,GTAGTCA,0.0294
20,GCCATCC,-0.165

row,Sequence,uncleaved DNA left (log2)
1,TTCGGAT,-0.129
2,CGGCCGG,0.0803
3,GTGGGTG,0.0377
4,GCTGGAC,0.187
5,TTGAAAT,0.254
6,AGTTCAC,-0.00892
7,TGGCGAT,0.0681
8,TGAACTG,0.129
9,TCACTGG,-0.0467
10,AGTTGGG,-0.114
11,ATCCAGA,-0.0551
12,CACACGC,-0.0884
13,CAGCTTA,0.117
14,ACTGGCT,0.0702
15,ACCGGCC,-0.0961
16,GAGCGCG,-0.121
17,GTCTGGA,0.131
18,CGTCAAA,0.149
19,ATCATGC,-0.1
20,GGCATCG,-0.078
